Some of the results follow.
Each molecule was assayed on T1, C. trachomatis L2/434/Bu expressing GFP (CTL2-GFP). Details: total inclusion area; 28.5 h, 10 µM; inhibitor.
T1 construct: L2/434/Bu GFP intracellular growth in HeLa cells
Design: species or system HeLa; C. trachomatis total inclusion area by high-content imaging, normalised to DMSO
Summary of the method: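 High-content imaging followed the bulk GFP/resorufin measurement: fixed, Hoechst-stained cells were scored for GFP inclusions and host nuclei per well. Total inclusion area and count served as growth proxies, nuclei number as the viability proxy. MIC calculation matched the bulk assay.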

SMILES | % of control remaining
CC(C)(CN)CN(Cc1cccc2ccccc12)C(=O)NC1C[C@H]1c1ccccc1 (stereo partly shown) [CBK000490C] | 65.4104
Cc1nnc(CN(C)C2CCN(Cc3ccc4c(c3)CCC4)C2)n1C (stereo not shown) [CBK304450] | 85.1277
O=C(CN1CCC(C(O)C(=O)NC2CC2)CC1)Nc1cc(Cl)ccc1F (stereo not shown) [CBK305477] | 61.1851
COc1ccc(C2c3ccccc3C[N+]3(C)CCCN23)cc1 (stereo not shown) [CBK008769] | 129.947
O=C(CCc1ccccc1)N1CCCC1c1n[nH]cc1-c1ccncc1 (stereo not shown) [CBK283436] | 120.185
CN1CCN(C(=O)CNS(=O)(=O)c2cc(F)c(Br)cc2F)CC1 [CBK034481] | 77.0197
Nc1ccc(-c2nc(NC(=O)Cc3ccccc3)cnc2-c2ccc(F)c(Cl)c2)cc1 [CBK036690] | 71.649
COc1ccccc1-c1nccnc1OC [CBK106811] | 68.1272
CC1(C)[C@H](Cc2cc(CO)on2)C[C@@H]1NS(=O)(=O)c1ccccc1 [CBK289234] | 76.3306
Cc1ccccc1OCC(=O)NCC1(N2CCCCC2)CCCCC1 [CBK297752] | 87.6278
COC(=O)C1CCCCN1S(=O)(=O)c1cccc2cccnc12 (stereo not shown) [CBK051244] | 93.339
COc1ccccc1NC(=O)Cn1cc(C(=O)c2cccs2)c2ccccc21 [CBK268256] | 87.9691
O=C(NCCCNC(=O)c1ccc(Br)o1)c1ccccn1 [CBK269430] | 109.264
COc1ccc(-c2noc(CN(C(C)=O)C3CCCCC3)n2)cc1 [CBK270264] | 93.3265
Cc1ccc(NC(=S)N(CCN(C)C)Cc2cc3ccc(C)cc3[nH]c2=O)c(C)c1 [CBK135134] | 94.6028
O=C(c1cc2cc(Cl)ccc2[nH]1)N1CCN(c2ccccn2)CC1 [CBK107343] | 88.6882
CN1CC[C@H](c2nc3ncccc3[nH]2)C1 [CBK289384] | 58.8611
Cc1ccc(S(=O)(=O)Nc2ccc(Nc3cc(-c4cc5ccccc5o4)ncn3)cc2)cc1 [CBK090976] | 112.964
NS(=O)(=O)c1ccc(NC(=O)c2ccc3ccccc3c2)cc1 [CBK264338] | 93.6065
Cc1cc(C)c2c(c1)cc(C)c1nn(CC(=O)N(C)C)c(=O)n12 [CBK283927] | 91.6848
CC(=O)CCCCC(=O)N1CCC2(CC1)CC(=O)c1cc(C)c(C)cc1O2 [CBK156497] | 123.294
O=C(C1CCCC1)N1CCC(n2c(=O)oc3ccc(Cl)cc32)CC1 [CBK284344] | 91.3458
O=S(=O)(Nc1nnn[nH]1)c1csc2ccccc12 [CBK062590] | 122.699
O/N=C1\CC(c2ccccc2)Oc2ccc(Cl)cc21 (stereo not shown) [CBK288370] | 38.3729
CC(C)Nc1nccnc1OCc1ccc(F)cc1 [CBK115644] | 105.462
Cc1cnc2c(Cl)c(C(=O)N3CCN(C)C4(CCNCC4)C3)nn2c1 [CBK306513] | 41.3099
CCOC(=O)C1CSCCN1C(=O)c1cc(C)n(-c2nccs2)c1C (stereo not shown) [CBK305884] | 42.0393

SMILES | % of control remaining
O=C1CC(N2CCN(c3ccccc3)CC2)C(=O)N1c1cccc2ccccc12 (stereo not shown) [CBK261263] | 108.746
O=C(NC1CCCCC1)[C@@H]1C=CCN1C(=O)c1cccs1 [CBK284338] | 76.2692
Cc1ccc(OCCOc2cccc(/C=N/n3cnnc3)c2)cc1 [CBK263028] | 97.587
COC(=O)c1cn(C(=O)COc2ccc(Cl)cc2)c2ccccc12 [CBK262598] | 104.347
CN(C)S(=O)(=O)N(CC(=O)Nc1cccc([N+](=O)[O-])c1)c1ccccc1 [CBK265904] | 87.4987
CS(=O)(=O)c1ccc(CNc2nccnc2-c2ccccc2F)cc1 [CBK036836] | 102.48
CC(=O)Nc1cccc(-n2nnnc2SCCCc2nc3ccccc3o2)c1 [CBK298317] | 92.7443
O=C1CN(C(=O)NCc2cccc3ccccc23)CCN1 [CBK155852] | 132.319
C=CCn1c2ccccc2c2nnc(SCC(=O)OCN3C(=O)c4ccccc4C3=O)nc21 [CBK263231] | 85.6692
COc1ccc(C(=O)C2=C(O)C(=O)N(CCCN(C)C)C2c2ccc(Cl)c(Cl)c2)c(C)c1 (stereo not shown) [CBK264896] | 117.672
COc1cccc(-c2csc(N3CCN(C(=O)Nc4ccccc4)CC3)n2)c1 [CBK070275] | 88.6774
O=C1NCCNC(=O)C2(C/C=C/COc3ccccc31)CCN(C(=O)CCN1CCCCC1)CC2 [CBK292026] | 84.5047
CC(C)(CN1CCCC1)CN1CCC(O)(c2ccccc2F)CC1 [CBK282798] | 109.437
S=c1[nH]nc(COc2ccccc2)n1C1CCCCC1 [CBK014411] | 81.2507
CCC1CCCCN1C(=O)c1ccnc(C)c1 (stereo not shown) [CBK081093] | 98.6331
COc1cccc(OCC(=O)NCC(c2cccs2)N2CCOCC2)c1 (stereo not shown) [CBK304664] | 111.103
CC(C)(CNC(=O)c1ccc(=O)n(CC(=O)N2CCc3ccccc32)c1)c1ccccc1F [CBK286020] | 137.221
Cc1c(C(=O)N2CCC(c3nc(C)n4ccsc34)CC2)cnn1C [CBK285201] | 74.0735
CN1CCN(c2ccc(-c3cc(Nc4cccc(OCc5ccccc5)c4)ncn3)cn2)CC1 [CBK090918] | 110.678
O=C(c1c[nH]c2ccccc12)N1CCC(Cc2ccccc2)CC1 [CBK200180] | 105.949
CC1(C(=O)Nc2cnn(Cc3ccc(F)cc3)c2)CCCO1 (stereo not shown) [CBK282585] | 91.87
CSc1nc2ccc(NC(=O)CSc3nnnn3-c3ccccc3)cc2s1 [CBK263549] | 108.596
COc1cc(C(N)C(=O)O)ccc1OCc1ccccc1 (stereo not shown) [CBK286909] | 72.6832
COc1cccc(CNC2CC2)c1OCc1ccccc1 [CBK270009C] | 91.8869
O=c1c(N2CCNCC2)nccn1CC1COc2ccccc2O1 (stereo not shown) [CBK024845T] | 41.7561
CC1(C)C/C(=N/O)c2cc3c(nc2C1)CC(C)(C)C/C3=N\O [CBK261629] | 87.9015
Cc1cc(-c2cc(=O)n(Cc3ccccc3C)nc2-c2ccco2)on1 [CBK282878] | 92.4526

SMILES | % of control remaining
COC(=O)c1c(NC(=S)NNC(=O)c2nn(C)cc2I)sc2c1CCC2 [CBK267074] | 117
O=C(NC[C@H]1O[C@@H](CC(=O)N2CCN(c3ccccc3)CC2)[C@H](O)[C@@H]1O)c1ccco1 [CBK288919] | 69.8413
COC(=O)c1ccc(N2CCN(Cc3nc(C4CC4)no3)C(C)C2)cc1 (stereo not shown) [CBK305744] | 80.0438
COc1ccccc1-c1cc2nc(C)cc(NCC3CCCO3)n2n1 (stereo not shown) [CBK304277] | 78.9637
OCCN1CC2(CCN(CC3CCCO3)CC2)c2ccccc21 (stereo not shown) [CBK143959] | 111.112
O=C(NCCCN1CCOCC1)NC(=O)c1ccc(Cl)cc1 [CBK269531] | 81.2787
O=C(CSc1nnc(-c2ccccc2)c(-c2ccccc2)n1)Nc1ccc(N2CCOCC2)cc1 [CBK269684] | 98.206
O=C(Cn1c(NCCO)nc2ccccc21)c1ccc([N+](=O)[O-])cc1 [CBK262139B] | 84.5474
Cc1ccc(C(=O)NNC(=O)c2cccnc2)cc1 [CBK261045] | 97.8592
COc1ccc(-n2nnc(C(=O)N3CCCCC3C(N)=O)c2C)cc1 (stereo not shown) [CBK305551] | 65.8651
O=C(Cc1ccccc1)N1CCc2c([nH]c3ccccc23)C12CCNC2 (stereo not shown) [CBK059461] | 89.025
CC[C@@H](Cn1nc2c(cc1=O)CCCCC2)NC(=O)c1ccco1 [CBK284553] | 112.597
COc1ccc(C)cc1S(=O)(=O)Nc1cc(N2CCN(CC3CC3)CC2)c2occc2c1 [CBK073624C] | 78.1743
COc1cccc(CN2CCC(Cc3ccccc3)CC2)c1 [CBK126436] | 102.517
CC(C)OC(=O)c1cc2n(n1)C(C(F)(F)F)CC(c1cccs1)N2 (stereo not shown) [CBK307176] | 66.0872
CCOC(=O)c1sc2nc(C(C)N(C)Cc3ccco3)[nH]c(=O)c2c1C (stereo not shown) [CBK306148] | 75.7385
Cn1c(=O)[nH]c(=O)c2c1nc(CN1CCOCC1)n2CCc1ccccc1 [CBK269910] | 88.0822
Nc1ccc(C(=O)Nc2ccc(Nc3cc(-c4ccccc4OCc4ccccc4)ncn3)cc2)cc1 [CBK091092] | 111.729
O=C(CSc1nnc(-c2cccnc2)n1-c1ccc(Br)cc1)Nc1cc(C(F)(F)F)ccc1Cl [CBK266099] | 50.7693
O=C(NC1CCN(C(=O)CCn2ccc3ccncc32)CC1)C1CC1 [CBK284718] | 102.651
O=C(CO)N1CC2(CCN(CCC(c3ccccc3)c3ccccc3)CC2)c2ccccc21 [CBK131513] | 72.5988
Cc1ccc(C(=O)NCCCN2CCC3(CC2)OCCc2c3[nH]c3ccccc23)cc1 [CBK113485] | 6.936
Cn1ccnc1C1(O)CCN(C(=O)Cc2ccccc2F)CC1 [CBK283585] | 79.0397
CCOC(=O)C1(Cc2cc(-c3ccccc3F)no2)CCCNC1 (stereo not shown) [CBK284577] | 79.8708
Cc1oc(C2CC2)cc1C(=O)N1CCCC1c1nc2ccccc2[nH]1 (stereo not shown) [CBK283741] | 66.1785
